Results published in PubChem BioAssay AID1346428 (National Center for Advancing Translational Sciences (NCATS), 2018).
“And” between values parts separate entries of the source, which are not always exact repeats. Equal values may be shown once. Hit rate of the full screen: of about 48,000 compounds, about 1,200 (2.5%) were called active. Another 2% or so got no clear call; they are omitted.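 How the source made its calls: active means activation of at least 60% and not above a set upper limit (about 1 call in 100 departs from these limits); inconclusive means activation of 40% to 60%, or above that upper limit; inactive means activation under 40%.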 The list shows a part of the results.

biological target: Probable G-protein coupled receptor 32 (Homo sapiens) (UniProt O75388); assay: qHTS for Agonists of Human Resolvin D1 Receptor DRV1; settings: CHO-K1 GPR32 beta-arrestin PathHunter luminescence, 90 min; at 76.9 µM; active compounds read high; zero percent set by DMSO-only wells; further: 0% is about no effect
UniProt O75388, sequence (O75388 whole entry, looked up): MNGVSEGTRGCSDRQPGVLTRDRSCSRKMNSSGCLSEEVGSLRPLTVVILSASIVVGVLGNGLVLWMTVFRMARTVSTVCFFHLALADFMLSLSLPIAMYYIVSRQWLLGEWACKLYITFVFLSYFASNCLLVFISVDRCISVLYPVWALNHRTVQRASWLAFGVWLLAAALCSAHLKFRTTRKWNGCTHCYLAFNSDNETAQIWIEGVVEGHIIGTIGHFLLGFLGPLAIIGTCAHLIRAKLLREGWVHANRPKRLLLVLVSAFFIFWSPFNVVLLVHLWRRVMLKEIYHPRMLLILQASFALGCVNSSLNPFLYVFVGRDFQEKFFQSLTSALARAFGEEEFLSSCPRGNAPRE
Method in brief: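 Luminescent readout of beta-Gal complementation quantifies ligand-induced beta-arrestin association with GPR32 in CHO-K1 cells; 90 min compound incubation at 37 °C, detection 1 h at room temperature.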

activation, inactive:
COc1ccc(C(=O)Nc2cc(C(C)C)c(O)c(S(=O)(=O)c3ccc(Cl)cc3)c2C)cc1 -38.9%, O=C(Nc1nnc(S(=O)(=O)N2CCOCC2)s1)c1ccccc1Cl 19.1%, Cc1cc2nn(-c3ccc(F)cc3)nc2cc1NC(=O)c1cccc2ccccc12 -6.5%, CCCC(=O)n1nc(-c2ccco2)nc1NCc1ccccc1Cl 2.44%, CC(C)CCNC(=O)c1ccc2c(c1)N(Cc1cccc(Cl)c1)C(=O)c1ccccc1S2 -17.2%, Nc1nc(N)c2nc(-c3ccccc3)c(N)nc2n1 43.9% and 8.95%, COc1ccc(OC)c(CCNC(=O)c2cc3c(=O)oc4ccc(C)cc4c3s2)c1 4.38%, CC(=O)Nc1ccc(NC(=O)C2CCCN2S(=O)(=O)c2ccc3c(c2)CCCC(=O)N3)cc1 (stereo not drawn) -12%, COc1ccc(N2CCN(C(=O)CN3C(=O)CSc4c3c(C)nn4-c3ccccc3)CC2)cc1 5.73%, O=C(Nc1ccc2oc(-c3cccnc3)nc2c1)c1ccc(-c2ccc(OC(F)(F)F)cc2)o1 29.6%, Cc1ccc(OCC(=O)Nc2ccc3c(c2)nc(CCNC(=O)c2ccco2)n3C)cc1 1.94%, O=C(Nc1ccc(F)c(Cl)c1)c1cc(S(=O)(=O)N2CCc3ccccc3C2)ccc1F -16.3%, O=C(Nc1ccc2nc(SCc3ccccc3)sc2c1)c1ccccc1F 26.6%, Cc1ccccc1N1CC(C(=O)Nc2ccc(Br)cc2)CC1=O (stereo not drawn) 9.33%, COCCCNc1nc2cc(OC)c(OC)cc2c2nc(-c3ccccc3)nn12 -9.21%, COc1ccc(CNC(=O)CN2N=C(c3ccccc3)CCC2=O)c(OC)c1 -13.7%, CCn1c(=O)c(=O)n(CC)c2cc(N3CCCCC3)c(NC(=O)c3ccc(Cl)cc3)cc21 -35.1%, Cc1nnc(N2CCCC(C(=O)NCc3ccccc3F)C2)c2nn(-c3ccc(Cl)cc3)c(C)c12 (stereo not drawn) -9%, O=C(CSc1n[nH]c(-c2ccccc2)n1)NCCCc1ccccc1 -3.18%, Cc1ccc(-n2nnc(-c3nsc(NC(=O)c4cccc(Cl)c4)n3)c2C)cc1C 11.1%, COc1cc(Cl)c(C)cc1NC(=O)c1ccc2c(SCC(=O)O)c3c(nc2c1)CCCC3 -17.6%, COc1ccc(C(=O)NCc2nnc(SCC(=O)Nc3ccccc3)n2-c2ccccc2)cc1 -6.65%, CCOC(=O)c1cc(S(=O)(=O)N2CCN(c3cc(C)ccc3C)CC2)[nH]n1 -3.73%, Cc1cccc(C)c1N1CC(c2nc3ccccc3n2CC(=O)OC(C)C)CC1=O (stereo not drawn) -8.48%, COc1ccccc1Nc1nn2c(=O)c3ccc(C(=O)N4CCCCC4)cc3nc2s1 6.68%, COc1ccc(CCn2nnnc2C2(c3ccc(C)cc3)CC2)cc1 -12.4%, COc1ccc(NC(=O)CSc2nc3cc(OC)c(OC)cc3c3nc(-c4ccccc4)nn23)cc1Cl 2.74%, COc1ccc(CC(=O)NCc2nc3cccnc3n2Cc2ccc(C)cc2)cc1 -6.93%, CCCN(CCC)C(=O)CSc1nc2ccccc2c(=O)n1Cc1ccco1 -25.5%, COC(=O)c1ccc(NC(=O)C(=O)NCCc2sc(-c3cccc(F)c3)nc2C)cc1 -13.5%, COc1cc(-c2ccno2)ccc1S(=O)(=O)N1CCN(c2ccccc2F)CC1 -9.67%, CC1CCN(S(=O)(=O)c2cc3c4c(c2)CC(=O)N4CCC3)CC1 -28.1%, Cc1ccc(-c2c(C)n3c4c(=O)n(C)c(=O)n(C)c4nc3n2-c2cccc(O)c2)cc1 -3.91%, Fc1ccc(-c2cc(-c3ccccc3)c3c(n2)-c2cc(F)ccc2OC3)cc1 -2.33%, Cc1cc(C)cc(NC(=O)CSc2oc(-c3cccs3)nc2S(=O)(=O)c2ccccc2)c1 -13.1%, COc1ccc(S(=O)(=O)NCC(c2ccco2)N2CCOCC2)cc1 (stereo not drawn) -13.7%, Cc1cccc(-c2cc(NC(=O)C(C)(C)C)n(-c3ccccc3)n2)c1 -8.42%, COc1ccc(C(CC(=O)Nc2cccc(C)c2C)N2Cc3ccccc3C2=O)cc1 (stereo not drawn) -21.6%, COc1cc(C2c3c(oc4ccccc4c3=O)C(=O)N2c2nncs2)cc(OC)c1OC (stereo not drawn) -10.1%, CCC1CN(C(=O)N2CCC(C(=O)Nc3cc(C)ccc3C)CC2)c2ccccc2O1 (stereo not drawn) -24.2%, CCCCOc1ccc(C(=O)CCN2CCCCC2)cc1 42.6%, CCOc1ccc(-c2cn3c(n2)sc2cc(C(=O)NCCCc4ccccc4)ccc23)cc1 -7.1%, Cc1nc2nc(SCc3ccc(F)cc3Cl)nn2c(C)c1Cc1ccccc1 -22.8%, O=C(COc1ccc(F)cc1)Nc1ccccc1C(=O)OCc1cc(=O)n2nc(C3CC3)sc2n1 0.311%, CC(NC(=O)c1ccc(Nc2nc3ccccc3n3nnnc23)cc1)c1ccccc1 (stereo not drawn) -6.62%, O=C(CS(=O)(=O)c1cccc2nsnc12)NCc1ccc(Cl)cc1 -10.2%, COc1ccc(-c2c(C)nn3c4c(cnc23)C(=O)CC(c2ccccc2)C4)cc1 (stereo not drawn) -1.29%, COc1cccc(N2CC(NC(=O)c3ccc4c(c3)OCO4)CC2=O)c1 (stereo not drawn) -5.5%, Cc1nc2nc(-c3ccc(Cl)cc3Cl)nn2c(C)c1CCC(=O)Nc1ccc(F)cc1 0.21%, CCCCN(C)CCCNC(=O)CN1C(=O)COc2ccc(S(=O)(=O)N3CCOCC3)cc21 -11.4%, CC(=O)c1ccc(NC(=O)C2CCCN(S(=O)(=O)c3ccc4c(c3)CCCN4C(C)=O)C2)cc1 (stereo not drawn) 8.18%, COc1ccccc1N1CCN(S(=O)(=O)c2c(C)sc3ncn(CC(=O)Nc4ccc(C(F)(F)F)cc4)c(=O)c23)CC1 -1.76%, Cc1cc(C)c(NC(=O)CCCN2C(=O)COc3ccc(C)cc32)c(C)c1 -7.91%, COc1ccc(CCNC(=O)CN(c2cc(C(F)(F)F)ccc2Cl)S(C)(=O)=O)cc1 31.4%, Cc1ccc(OCC(=O)Nc2ccccc2C(=O)OCc2cc(=O)n3ccsc3n2)cc1C -0.576%, O=C(O)Cc1sc(Nc2ccccc2Cl)nc1-c1ccccc1 -8.03%, CCOC(=O)c1c(NC(=O)Cc2coc3cc(C)ccc23)sc2c1CCCC2 -27.6%, CCc1ccc(NC(=O)c2cc3nc(-c4ccc(C)cc4)cc(C(F)(F)F)n3n2)cc1 3.52%, COC(=O)c1sc(NC(=O)c2cc3nc(-c4ccc(Br)cc4)cc(C(F)(F)F)n3n2)c(C(=O)OC)c1C -20.5%, O=C(Cn1ccc2cc(S(=O)(=O)N3CCCCC3)ccc21)NCCc1ccc(Cl)cc1 -12.8%, Cc1cc(C)cc(OCC(=O)NCC2(N(C)C)CCCCC2)c1 -5.05%, Cc1ccc(C)c(N2CCN(c3cc(C)nc4c(-c5ccc(Cl)cc5)c(C)nn34)CC2)c1 -5.43%, CC(C)CCNC(=O)[C@@H](c1ccccc1)N1Cc2ccccc2C1=O -8.01%, CCOc1ccc(NC(=O)Cn2nnc(C(=O)Nc3ccc(OCC)cc3)c2N)cc1 23.1%, CCc1nn(CC(=O)NC(C)c2ccccc2)c(=O)c2cc3sccc3n12 (stereo not drawn) -14.1%, CCOC(=O)C1=C(CS(=O)(=O)c2ccc(F)cc2)NC(=O)NC1c1ccc(OCC)c(OC)c1 (stereo not drawn) -1.44%, Cc1ccc(S(=O)(=O)N2CCC(c3ccncc3)CC2)c(C)c1 8.54%, CCCc1cc(=O)n2[nH]c(NCc3ccccc3OC)nc2n1 10.7%, O=C(COc1ccccc1-c1nc(-c2ccccc2)no1)Nc1ccccc1[N+](=O)[O-] 2.76%, CC(=O)Nc1ccc(C2Nc3c(C)cc(C)cc3-c3cc(C)nn32)cc1 (stereo not drawn) -1.91%, Cc1ccc(S(=O)(=O)NCCSc2nnnn2-c2ccc(Cl)c(C(=O)O)c2)cc1 -5.03%, COc1cc(OC)c(NS(=O)(=O)c2ccc3c(c2)NC(=O)CCS3)cc1Cl 43.2%, Cc1cc(C)cc(Nc2sc(C(=O)c3ccccc3)c(N)c2S(=O)(=O)c2ccccc2)c1 -7.37%, CCOC(=O)c1c(C)oc2nc(C)nc(NCc3ccccc3OCC)c12 -14.3%, CCOC(=O)c1ccc(NC(=O)C(Cc2ccccc2)NS(=O)(=O)c2ccc(Br)s2)cc1 (stereo not drawn) 14%, CCCc1nc2ccccc2n2c(-c3cccc(C)c3)c3c(=O)n(C)c(=O)n(C)c3c12 -17.6%, O=C(NCc1ccccc1Cl)C1CCCN(c2ncnc3onc(-c4ccc(F)cc4)c23)C1 (stereo not drawn) -18%, Cn1c(=O)c2c(nc(NCc3ccccc3)n2Cc2ccccc2Cl)n(C)c1=O 4.54%, O=C(C1CC1)N1CCN(c2nc3ccc(F)cc3s2)CC1 -2.02%, CN(C)S(=O)(=O)c1ccc2c(c1)nnn2CCNC(=O)Nc1ccc(Br)cc1 1.99%, COc1cccc(OCc2nc3ccccc3n2CCOc2ccccc2C)c1 -28.7%, CCCCOc1ccc(CNC(=O)c2cnc3sc(N4CCOCC4)nn3c2=O)cc1 -10.3%, CCOC(=O)C(C)Oc1cccc2c(=O)n(CC(=O)Nc3ccc4c(c3)OCCO4)ccc12 (stereo not drawn) 15.1%
